Source: the supplement of paper PMC4967469
IC50 is the fitted dose that halves viability relative to control wells, and lower means more sensitive; fits outside the tested doses are given as limits. For AUC the same curve is integrated over the 256-fold range of doses and scaled to a fraction: 1 means no effect, lower means more sensitive. For some assays here: Where the top dose is marked as inferred, it was derived from the fitted curves, not read from the paper. For some assays here: An entry number marks a drug with two screens in the source, which often give different values.

Key:
Experiment in all cases: Viability of human cancer cell lines after 72 h of drug (GDSC screen)
[1] = compound: COc1cc(N2CCC(N3CCN(C)CC3)CC2)ccc1Nc1ncc(Cl)c(Nc2ccccc2S(=O)(=O)C(C)C)n1 [NVP-TAE684]; conditions: top dose 2 µM
Procedure: (§1)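 Human cancer cell lines in 384-well plates, medium with 10% serum, drug for 72 h over a 256-fold dose range (nine 2-fold or five 4-fold steps up to the top dose). Adherent lines were fixed and stained with the nucleic acid dye Syto60, suspension lines read with resazurin; signal relative to control wells, capped at 0 and 100%. One two-parameter sigmoid per drug and line, fitted in a mixed model over all curves with the slope shared within a line.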

[2] = compound: Cc1ccc(C(=O)N(CCCN)[C@@H](c2nc3cc(Cl)ccc3c(=O)n2Cc2ccccc2)C(C)C)cc1 [SB-715992]; conditions: top dose 0.128 µM; top dose inferred
Procedure: as §1

[3] = compound: c1ccc2c(CCNc3ccc(Nc4ccncc4)cc3)c[nH]c2c1 [JNJ-26854165]; conditions: top dose 10 µM
Procedure: as §1

[4] = compound: Cc1sc2c(c1C)C(c1ccc(Cl)cc1)=N[C@@H](CC(=O)OC(C)(C)C)c1nnc(C)n1-2 [JQ1]
Procedure: as §1

[5] = compound: CC1(C)CNc2cc(NC(=O)c3cccnc3NCc3ccncc3)ccc21 [AMG-706]; conditions: top dose 2 µM; top dose inferred
Procedure: as §1

[6] = compound: COC(=O)[C@H](CCSC)NC(=O)c1ccc(NC[C@@H](N)CS)cc1-c1ccccc1 [FTI-277]; conditions: top dose 1.024 µM; top dose inferred
Procedure: as §1

[7] = compound: COCC[n+]1c2c(n(Cc3cnccn3)c1C)C(=O)c1ccccc1C2=O [YM155]; conditions: top dose 5.12 µM
Procedure: as §1

[8] = compound: C[C@]1(O)C[C@@H](c2nc(-c3ccc4ccc(-c5ccccc5)nc4c3)c3c(N)nccn32)C1 [OSI-906]; conditions: top dose 2.56 µM; top dose inferred
Procedure: as §1

[9] = compound: CC1=C2C[C@H]3[C@@H](CC=C4C[C@@H](O)CC[C@@]43C)[C@@H]2CC[C@]12O[C@@H]1C[C@H](C)CN[C@H]1[C@H]2C [Cyclopamine]; conditions: top dose 16 µM; top dose inferred
Procedure: as §1

[10] = compound: CCOc1nc(NC(=O)Cc2cc(OC)ccc2OC)cc(N)c1C#N [JNK Inhibitor VIII]; conditions: top dose 10 µM; top dose inferred
Procedure: as §1

[11] = compound: OCCCNc1cc(-c2ccnc(Nc3cccc(Cl)c3)n2)ccn1 [CGP-60474]; conditions: top dose 0.256 µM; top dose inferred
Procedure: as §1

[12] = compound: CN1CCN(c2ccc([N+](=O)[O-])c3no[n+]([O-])c23)CC1 [NSC-207895]; conditions: top dose 20 µM; top dose inferred
Procedure: as §1

[13] = compound: O=C(/C=C/c1cccc(S(=O)(=O)Nc2ccccc2)c1)NO [Belinostat]; conditions: top dose 20 µM; top dose inferred
Procedure: as §1

[14] = top dose 1 µM, screen: GDSC drug entry 1218, top dose inferred
[15] = top dose 2.56 µM, screen: GDSC drug entry 163

Cell Line	AUC [1]	IC50 [1]	AUC [2]	IC50 [2]	AUC [3]	IC50 [3]	AUC [4, 14]	IC50 [4, 14]	AUC [4, 15]	IC50 [4, 15]	AUC [5]	IC50 [5]	AUC [6]	IC50 [6]	AUC [7]	IC50 [7]	AUC [8]	IC50 [8]	AUC [9]	IC50 [9]	AUC [10]	IC50 [10]	AUC [11]	IC50 [11]	AUC [12]	IC50 [12]	AUC [13]	IC50 [13]
TUR (B-cell lymphoma, suspension)	0.973	> 2000 nM	0.673	23.2 nM	0.902	> 10000 nM	0.964	> 1000 nM	0.861	1900 nM	0.988	> 2000 nM	0.985	> 1020 nM	0.071	< 20 nM	0.989	> 2560 nM	0.984	> 16000 nM	0.987	> 10000 nM	0.96	> 256 nM	0.948	> 20000 nM	0.274	303 nM
SCC-15 (head and neck, adherent)	0.979	> 2000 nM	0.938	> 128 nM	0.98	> 10000 nM	0.943	> 1000 nM	0.635	429 nM	0.956	> 2000 nM	0.967	> 1020 nM	0.056	< 20 nM	0.893	> 2560 nM	0.936	> 16000 nM	0.908	> 10000 nM	0.876	> 256 nM	0.939	> 20000 nM	0.527	1520 nM
OCI-LY-19 (B-cell lymphoma, suspension)	0.786	789 nM	0.536	9.95 nM	0.943	> 10000 nM	0.956	> 1000 nM	0.545	210 nM	0.988	> 2000 nM	0.967	> 1020 nM	0.021	< 20 nM	0.738	717 nM	0.985	> 16000 nM	0.988	> 10000 nM	0.668	45.2 nM	0.81	9540 nM	0.211	193 nM
NCI-H1355 (lung adenocarcinoma, adherent)	0.675	480 nM	0.929	> 128 nM	0.939	> 10000 nM	0.96	> 1000 nM	0.801	1960 nM	0.929	> 2000 nM	0.9	> 1020 nM	0.631	864 nM	0.556	243 nM	0.938	> 16000 nM	0.891	> 10000 nM	0.58	29.2 nM	0.975	> 20000 nM	0.923	> 20000 nM
KG-1 (acute myeloid leukaemia, suspension)	0.71	455 nM	0.937	> 128 nM	0.988	> 10000 nM	–	–	–	–	0.989	> 2000 nM	0.99	> 1020 nM	0.65	793 nM	0.99	> 2560 nM	0.983	> 16000 nM	0.99	> 10000 nM	0.924	> 256 nM	0.893	19400 nM	0.285	333 nM
KNS-42 (glioma, adherent)	0.95	> 2000 nM	0.873	> 128 nM	0.94	> 10000 nM	0.982	> 1000 nM	0.852	> 2560 nM	0.98	> 2000 nM	0.984	> 1020 nM	0.076	< 20 nM	0.969	> 2560 nM	0.97	> 16000 nM	0.984	> 10000 nM	0.811	170 nM	0.893	> 20000 nM	0.568	1990 nM
EW-1 (Ewing sarcoma, semi-adherent)	0.496	122 nM	0.533	9.78 nM	0.882	9070 nM	0.988	> 1000 nM	0.851	1720 nM	0.936	> 2000 nM	0.98	> 1020 nM	0.021	< 20 nM	0.417	96.7 nM	0.988	> 16000 nM	0.926	> 10000 nM	0.684	49.8 nM	0.964	> 20000 nM	0.236	234 nM
K5 (thyroid, adherent)	0.78	787 nM	0.814	66 nM	0.672	1840 nM	0.986	> 1000 nM	0.842	1680 nM	0.982	> 2000 nM	0.945	> 1020 nM	0.309	95.6 nM	0.955	> 2560 nM	0.988	> 16000 nM	0.985	> 10000 nM	0.609	31.4 nM	0.986	> 20000 nM	0.512	1350 nM
SU-DHL-8 (B-cell lymphoma, suspension)	0.948	> 2000 nM	0.73	34.1 nM	0.988	> 10000 nM	0.984	> 1000 nM	0.601	297 nM	0.988	> 2000 nM	0.984	> 1020 nM	0.022	< 20 nM	0.97	> 2560 nM	0.988	> 16000 nM	0.988	> 10000 nM	0.54	20.4 nM	0.89	> 20000 nM	0.075	< 78.1 nM
